# Among all 110,000 compounds or so, about 230 (0.21%) showed an effect of 50% or more. The list shows a part of the results.
# Target: DPAP1 (Plasmodium falciparum, UniProt Q8IIJ9)
# Assay: primary screen, percent inhibition; read by cleavage of a fluorogenic dipeptide substrate; higher = more effect of the substance
# Set-up: species or system P. falciparum D10 trophozoite lysates; single well
# 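Note: 30 min substrate incubation versus DMSO and 10 µM JCP410 controls.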
# Chain of DPAP1 (Q8IIJ9 whole entry, looked up): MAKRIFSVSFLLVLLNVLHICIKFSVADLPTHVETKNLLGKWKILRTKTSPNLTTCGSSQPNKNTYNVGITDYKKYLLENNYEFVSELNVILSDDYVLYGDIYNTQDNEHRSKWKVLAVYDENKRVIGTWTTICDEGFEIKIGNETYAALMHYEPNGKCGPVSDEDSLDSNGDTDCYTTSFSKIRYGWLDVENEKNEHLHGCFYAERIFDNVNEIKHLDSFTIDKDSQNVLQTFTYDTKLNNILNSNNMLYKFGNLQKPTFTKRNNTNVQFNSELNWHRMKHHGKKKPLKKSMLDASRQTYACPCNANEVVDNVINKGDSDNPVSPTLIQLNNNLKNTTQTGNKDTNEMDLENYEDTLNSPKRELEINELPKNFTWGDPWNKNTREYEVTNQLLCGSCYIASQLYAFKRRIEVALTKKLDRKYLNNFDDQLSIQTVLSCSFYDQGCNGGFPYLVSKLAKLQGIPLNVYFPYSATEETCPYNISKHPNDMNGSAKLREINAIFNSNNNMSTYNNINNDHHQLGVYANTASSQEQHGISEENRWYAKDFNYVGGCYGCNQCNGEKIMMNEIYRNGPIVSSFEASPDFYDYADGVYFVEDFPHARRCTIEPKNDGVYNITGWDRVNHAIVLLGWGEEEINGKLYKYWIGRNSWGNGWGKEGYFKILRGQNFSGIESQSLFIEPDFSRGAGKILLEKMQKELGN
row,Structure (SMILES),% Inhibition @ 10 uM [%]
1,Cc1cccn2c(=O)c(/C=C(\C#N)C(=O)NCc3ccco3)c(Oc3ccccc3)nc12,-5.1
2,COC(=O)C1=C(C)NC(=O)CC1c1ccccc1 (centres unmarked),3.44
3,Nc1nonc1C1=NOS(=O)N1 (centres unmarked),-8.05
4,O=C(Cn1c(=O)sc2ccccc21)Nc1ccc(C(=O)O)cc1,-7.32
5,CCCS(=O)(=O)n1nc(-c2ccc(Br)cc2)cc1N,-0.495
6,O=C(NCc1cccc(Br)c1)c1cnn(-c2ccccc2)c1-n1cccc1,6.35
7,CCCCS(=O)(=O)c1c(C(=O)O)ccc2c1C(=O)c1ccccc1C2=O,1.32
8,Cc1ccccc1CN(c1ccc(C(=O)N2CCN(C)CC2)cc1)S(C)(=O)=O,-3.43
9,CCOC(=O)c1ccc2[nH]c(C)c(C)c2c1,3.53
10,O=c1oc2ccc(Br)cc2cc1-c1csc(NC2CCCCC2)n1,4.02
11,Cc1c2cnn(CC(=O)N3CCC4(CC3)OCCO4)c(=O)c2c(C)n1Cc1ccc(F)cc1,1.22
12,CC1CCN(CCC(=O)N2CCCc3c2c(=O)oc2ccc(O)cc32)CC1,1.52
13,COCCNC1CCC(C(C)(C)C)CC1 (centres unmarked),4.55
14,CCOCCCNC(=O)C1CCN(c2ncnc3c2nc2n3CCCCC2)CC1,6.35
15,CCOc1cccc(/C=C2\SC(=O)N(Cc3ccc(F)cc3)C2=O)c1O,-1.6
16,COCCCNC(=O)CN1C(=O)CSc2ncccc21,-6.01
17,CCn1c2ccccc2c2cc(C=O)ccc21,2.8
18,O=C(N/C(=C\c1ccccc1)C(=O)N1CCN(CCO)CC1)c1ccccc1,-6.59
19,COc1ccccc1C1CN(c2ccccc2)N=C1c1cccs1 (centres unmarked),-3.8
20,COc1ccc(-c2nc(N3CCOCC3)nc3nn4c(C)c(CCC(=O)O)c(C)nc4c23)cc1,9.46
21,COc1ccc(OCC(=O)NCCN2CCCC2)cc1,-0.251
22,Clc1cccc(CSc2nnc(-c3ccc(Cl)cc3Cl)o2)c1,6.86
23,COc1ccc(C2C3=C(O)CCCC3=Nc3ccc4nc(C)ccc4c32)cc1OC (centres unmarked),-1.19
24,CCOc1ccc(-c2nc(NC(=O)Cc3csc(C)n3)sc2C)cc1,-1.11
25,Cc1ccccc1CNC(=O)C(C)n1ccc2cc(S(=O)(=O)N3CCCC3)ccc21 (centres unmarked),3.99

row,Structure (SMILES),% Inhibition @ 10 uM [%]
1,Cc1ccc(-c2nc3c4ccccc4nc(S)n3n2)cc1,-7.62
2,COc1ccc(C)cc1NC(=O)CCC(=O)Nc1cc(C)ccc1OC,-7.14
3,Cc1ccc(-c2nnc3n(CCCOC(C)C)c(=O)c4ccccc4n23)s1,-3.51
4,C=CCN(C(=O)c1ccccc1)c1ccc(OC)cc1,5.31
5,CC(=O)c1cc(-c2ccccc2)n(CC(=O)Nc2nc3c(C)cccc3s2)c1C,1.47
6,COc1cc(CN2CCCN(C)CC2)cc(Br)c1O,-6.21
7,c1ccc(CNCc2ccco2)cc1,-6.22
8,Cc1nc(-c2ccccc2)nc2[nH]c(=O)n(-c3ccccc3)c(=O)c12,-5.62
9,CN(Cc1ccco1)C(=O)C1CCCN(c2ncnc3c2nc2n3CCCCC2)C1 (centres unmarked),6.99
10,CCOc1ccccc1N(CC(=O)Nc1ccccc1-c1ccccc1)S(C)(=O)=O,-7.5
11,CN1CCC(N(C)CCc2ccccc2)CC1,6.41
12,COc1cc(C2C3=C(CC(C)(C)CC3=O)OC3=C2C(=O)CC(C)(C)C3)ccc1O,-4.94
13,Cc1cc(CNC(=O)COc2c(F)c(F)cc(F)c2F)c2ccccc2n1,-6.42
14,Cc1cc(C)c2c(=O)cc(C(F)(F)F)oc2n1,3.38
15,Cc1nc2ccccc2c2oc(C(=O)NCCc3ccsc3)cc12,-13.2
16,COc1ccccc1-c1cc(-c2ccccc2)nc(SCC(=O)c2ccc(-c3ccccc3)cc2)c1C#N,-0.736
17,OC1(c2ccc(Cl)cc2)CCN(Cc2ccc(Cl)c(Cl)c2)CC1,-2.21
18,COc1cccc(S(=O)(=O)NCc2ccc(C(=O)Nc3ccc(C)cc3)cc2)c1,0.389
19,Cc1ccc(C(=O)Cn2nc(-c3ccccc3)c3c(c2=O)CCCC3)cc1,4
20,COC(=O)c1c(NC(=O)c2ccccc2)sc2c1CCCC2,-0.414
21,CC(C(=O)O)n1ccc2cc(S(=O)(=O)N3CCCC3)ccc21 (centres unmarked),1.63
22,CS(=O)(=O)c1ccc2nc(NC(=O)C3c4ccccc4Oc4ccccc43)sc2c1,0.777
23,CCCC(=O)n1nc(-c2ccco2)nc1NCc1ccccc1,3.51
24,CCc1ccc(C(=O)NC(Cc2c[nH]c3ccccc23)C(=O)O)cc1 (centres unmarked),-1.47
25,COc1ccc(CCN2C(=O)c3c(C)nc4ccccc4c3C2=O)cc1,-0.228
